# In the supplement of paper PMC4967469:
# The IC50 comes from the fitted curve, where viability falls to half of the control; a limit (>, <) means that the fit lies beyond the doses tested. AUC sums up the same curve from the lowest dose to the 256-fold higher top dose: 1 means no effect, lower means more sensitive. Any top dose called inferred was calculated from the reported fits.
# Experiments:
# FR-180204 = compound: Nc1[nH]nc2nnc(-c3c(-c4ccccc4)nn4ccccc34)cc12 [FR-180204]; experiment: Viability of human cancer cell lines after 72 h of drug (GDSC screen); settings: top dose 20 µM; top dose inferred
# Protocol: (§1)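 Human cancer cell lines in 384-well plates, medium with 10% serum, drug for 72 h over a 256-fold dose range (nine 2-fold or five 4-fold steps up to the top dose). Adherent lines were fixed and stained with the nucleic acid dye Syto60, suspension lines read with resazurin; signal relative to control wells, capped at 0 and 100%. One two-parameter sigmoid per drug and line, fitted in a mixed model over all curves with the slope shared within a line.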
# FK866 = compound: O=C(/C=C/c1cccnc1)NCCCCC1CCN(C(=O)c2ccccc2)CC1 [FK866]; experiment: as above; settings: top dose 1 µM; top dose inferred
# Protocol: as §1
Cell Line,AUC (FR-180204),IC50 (FR-180204),AUC (FK866),IC50 (FK866)
"CAL-51 (breast, adherent)",0.991,> 20 µM,0.041,< 0.00391 µM
"CAL-54 (kidney, adherent)",0.983,> 20 µM,0.911,> 1 µM
"CAL-62 (thyroid, adherent)",0.985,> 20 µM,0.116,0.00395 µM
"CAL-72 (osteosarcoma, adherent)",0.981,> 20 µM,0.468,0.0503 µM
"CAL-78 (chondrosarcoma, adherent)",0.979,> 20 µM,0.985,> 1 µM
"CAL-85-1 (breast, adherent)",0.919,> 20 µM,0.819,0.785 µM
"CAL-120 (breast, adherent)",0.974,> 20 µM,0.279,0.0121 µM
"CAMA-1 (breast, adherent)",0.983,> 20 µM,0.883,> 1 µM
"CAS-1 (glioma, adherent)",0.981,> 20 µM,0.86,> 1 µM
"CCF-STTG1 (glioma, adherent)",0.987,> 20 µM,0.577,0.102 µM
"CCK-81 (large intestine, adherent)",0.948,> 20 µM,0.944,> 1 µM
"CCRF-CEM (lymphoblastic leukaemia, suspension)",0.957,> 20 µM,0.052,< 0.00391 µM
"CESS (acute myeloid leukaemia, suspension)",0.907,> 20 µM,0.045,< 0.00391 µM
"CFPAC-1 (pancreas, adherent)",0.978,> 20 µM,0.671,0.202 µM
"CGTH-W-1 (thyroid, adherent)",0.982,> 20 µM,0.077,< 0.00391 µM
"CHL-1 (melanoma, adherent)",0.904,> 20 µM,0.052,< 0.00391 µM
"CHP-126 (neuroblastoma, suspension)",0.926,> 20 µM,0.122,< 0.00391 µM
"CHP-212 (neuroblastoma, adherent)",0.988,> 20 µM,0.08,< 0.00391 µM
"CHSA0011 (chondrosarcoma, adherent)",0.961,> 20 µM,0.913,> 1 µM
"CHSA0108 (chondrosarcoma, adherent)",0.984,> 20 µM,0.343,0.0213 µM
"CHSA8926 (chondrosarcoma, adherent)",0.98,> 20 µM,0.864,> 1 µM
"CL-11 (large intestine, adherent)",0.987,> 20 µM,0.827,0.716 µM
"CMK (acute myeloid leukaemia, suspension)",0.866,13.4 µM,0.033,< 0.00391 µM
"COLO-205 (large intestine, suspension)",0.958,> 20 µM,0.138,0.00465 µM

Cell Line,AUC (FR-180204),IC50 (FR-180204),AUC (FK866),IC50 (FK866)
"COLO-320-HSR (large intestine, suspension)",0.985,> 20 µM,0.026,< 0.00391 µM
"COLO-668 (small cell lung carcinoma, adherent)",0.958,> 20 µM,0.981,> 1 µM
"COLO-678 (large intestine, semi-adherent)",0.981,> 20 µM,0.935,> 1 µM
"COLO-679 (melanoma, adherent)",0.977,> 20 µM,0.792,0.516 µM
"COLO-680N (oesophagus, adherent)",0.985,> 20 µM,0.916,> 1 µM
"COLO-684 (endometrium, suspension)",0.984,> 20 µM,0.249,0.0107 µM
"COLO-783 (melanoma, adherent)",0.991,> 20 µM,0.953,> 1 µM
"COLO-792 (melanoma, adherent)",0.984,> 20 µM,0.489,0.0585 µM
"COLO-800 (melanoma, adherent)",0.985,> 20 µM,0.035,< 0.00391 µM
"COLO-824 (breast, adherent)",0.987,> 20 µM,0.456,0.0473 µM
"COLO-829 (melanoma, adherent)",0.961,> 20 µM,0.876,> 1 µM
"COR-L23 (large cell lung carcinoma, adherent)",0.978,> 20 µM,0.181,0.00712 µM
"COR-L88 (small cell lung carcinoma, adherent)",0.98,> 20 µM,0.241,0.00948 µM
"COR-L95 (small cell lung carcinoma, adherent)",0.98,> 20 µM,0.974,> 1 µM
"COR-L105 (lung adenocarcinoma, adherent)",0.929,> 20 µM,0.825,0.783 µM
"COR-L279 (small cell lung carcinoma, suspension)",0.979,> 20 µM,0.131,0.00518 µM
"COR-L321 (lung, suspension)",0.97,> 20 µM,0.148,0.00505 µM
"CP50-MEL-B (melanoma, adherent)",0.942,> 20 µM,0.149,0.0052 µM
"CP66-MEL (melanoma, adherent)",0.976,> 20 µM,0.835,0.787 µM
"CPC-N (small cell lung carcinoma, suspension)",0.983,> 20 µM,0.04,< 0.00391 µM
"CS1 (bone, adherent)",0.981,> 20 µM,0.174,0.00558 µM
"CTB-1 (B-cell lymphoma, suspension)",0.979,> 20 µM,0.198,0.00543 µM
"CW-2 (large intestine, adherent)",0.974,> 20 µM,0.727,0.292 µM
"Ca9-22 (head and neck, adherent)",0.948,> 20 µM,0.187,0.00794 µM

Cell Line,AUC (FR-180204),IC50 (FR-180204),AUC (FK866),IC50 (FK866)
"Ca-Ski (cervix, adherent)",0.962,> 20 µM,0.612,0.132 µM
"CaR-1 (large intestine, adherent)",0.976,> 20 µM,0.461,0.0465 µM
"Calu-6 (lung adenocarcinoma, adherent)",0.979,> 20 µM,0.613,0.134 µM
"Caov-4 (ovary, adherent)",0.98,> 20 µM,0.892,> 1 µM
"Capan-2 (pancreas, adherent)",0.949,> 20 µM,0.769,0.458 µM
"ChaGo-K-1 (non-small cell lung carcinoma, adherent)",0.978,> 20 µM,0.372,0.0262 µM
"D-247MG (glioma, adherent)",0.91,> 20 µM,0.865,> 1 µM
"D-263MG (glioma, adherent)",0.978,> 20 µM,0.043,< 0.00391 µM
"D-283MED (medulloblastoma, adherent)",0.991,> 20 µM,0.029,< 0.00391 µM
"D-336MG (glioma, adherent)",0.969,> 20 µM,0.912,> 1 µM
"D-392MG (glioma, adherent)",0.976,> 20 µM,0.971,> 1 µM
"D-423MG (glioma, adherent)",0.933,> 20 µM,0.258,0.0106 µM
"D-502MG (glioma, adherent)",0.949,> 20 µM,0.887,> 1 µM
"D-542MG (glioma, adherent)",0.984,> 20 µM,0.743,0.368 µM
"D-566MG (glioma, adherent)",0.964,> 20 µM,0.262,0.0132 µM
"DAN-G (pancreas, adherent)",0.989,> 20 µM,0.686,0.191 µM
"DB (B-cell lymphoma, suspension)",0.967,> 20 µM,0.115,< 0.00391 µM
"DBTRG-05MG (glioma, adherent)",0.958,> 20 µM,0.954,> 1 µM
"DEL (lymphoid neoplasm, suspension)",0.99,> 20 µM,0.467,0.0517 µM
"DG-75 (Burkitt lymphoma, suspension)",0.985,> 20 µM,0.515,0.0687 µM
"DK-MG (glioma, adherent)",0.967,> 20 µM,0.891,> 1 µM
"DMS-53 (small cell lung carcinoma, adherent)",0.986,> 20 µM,0.984,> 1 µM
"DMS-79 (small cell lung carcinoma, suspension)",0.986,> 20 µM,0.416,0.0353 µM
"DMS-114 (small cell lung carcinoma, adherent)",0.985,> 20 µM,0.145,0.00393 µM
